Results published in the RNAGym collection of RNA variant scans (doi:10.1093/nar/gkz1192).
The source gives no read counts; variants with many changes may rest on few reads.

B1: CPEB3 Ribozyme (parent)
chain: UAACAGGGGGCCACAGCAGAAGCGUUCACGUCGCAGCCCCUGUCAGAUUCUGGUGAAUCUGCGAAUUCUGCUGUAUAUCUC

Variants of: B1
Experiment: self-cleavage, relative activity (ratio to wild type); higher = more cleavage; in vitro, sequencing
Method in brief: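 Relative activity compares each variant's cleaved/total read fraction with that of the unmutated ribozyme. To get these fractions, barcoded CPEB3 ribozyme libraries from rounds of error-prone PCR were transcribed with T7 RNA polymerase for 5 hours at 37°C and then given 15 min of DNase I treatment before EDTA was added. The RNAs were reverse transcribed with template switching and sequenced on Illumina, and DNA sequencing linked barcodes to variants. A minimum of 5 reads applied, and three batches were averaged.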

Row | Variant | self-cleavage
1 | A3G C12U G33A G61A | 0.04
2 | A3G A15U A56G | 0.47
3 | A3G A47U A56U A64G U72A | 0.08
4 | A3G A20C U41A A64G U67A | 0.21
5 | A3G C23U U58C U67C U72A | 0.05
6 | A3G A18U A57G | 0.47
7 | A3G A45G C62G A65G U72C A77U | 0.29
8 | A3G A18G U54C U67C | 0.34
9 | A3G A35U U49C U51A A56G U58C U80A | 0.07
10 | A3G C12U U48C U74C | 1.21
11 | A3G A20G U25C A28U U49C A57G U69A | 0.29
12 | A3G C4U A13G U51A | 0.35
13 | A3G A35U U74A | 1.05
14 | A3G A35U G42A A75U | 0.23
15 | A3G A21G U76A | 0.91
16 | A3G A18U A28G U48C U51C A57U | 0.13
17 | A3G A28G U58G U78C | 0.35
18 | A3G C11G U25C U48C | 0.08
19 | A3G C29U U43G U60C U72A | 0.06
20 | A3G A35U U51C | 0.59
21 | A3G A56G A57G U60A | 0.27

Row | Variant | self-cleavage
22 | A3G A20G U49C U69A | 0.21
23 | A3G A21U A35G A45G U51G | 1.15
24 | A3G A28G G33C U54C | 0.12
25 | A3G A20U A65G G73A U78A | 0.79
26 | A3G A15U C27U U72C | 0.24
27 | A3G C17A A18G U31A U58C A64G U74C | 0.07
28 | A3G A35G U41C U43C | 0.98
29 | A3G A64U U80C | 0.4
30 | A3G C11U A47G | 0.65
31 | A3G C11G U25C U41C U43C | 0.05
32 | A3G C4U A5G | 0.82
33 | A3G A15G U25C U48A G61A A65U A77G | 0.07
34 | A3G A45G G70C | 0.2
35 | A3G A20U C39U A45G | 0.35
36 | A3G A35U U48C G52A U66C C68G | 0.21
37 | A3G A28G C32A U41C | 0.16
38 | A3G A35U C39U U43C | 0.14
39 | A3G A35U A75U | 0.85
40 | A3G A15G C27U U60C U80A | 0.12
41 | A3G A18G U51A G52U | 0.94
42 | A3G A15U G42C A56G A64G U66C | 0.19

Row | Variant | self-cleavage
43 | A3G A18G U25C C29A U41A C68U | 0.08
44 | A3G A20U U25C A45G A77U | 0.1
45 | A3G A15G C59A U67C U72G U74C | 0.11
46 | A3G A21G C62U | 0.38
47 | A3G A15G U41C | 0.62
48 | A3G A15U U25A U41C U58C G73A | 0.04
49 | A3G A18G A56U U72A | 0.2
50 | A3G A21G U51C U60A G63A U74C | 0.28
51 | A3G A56C A65G | 0.26
52 | A3G C29A U31C U41A U51C A57G A75G | 0.04
53 | A3G A18U U49C A64U | 0.37
54 | A3G A18G A47G | 0.85
55 | A3G A20G A21U A28G G30A U67C | 0.09
56 | A3G C4U U66A | 0.74
57 | A3G A18U G36A U67G | 0.07
58 | A3G A20G U74A A75G | 1.15
59 | A3G A35U A45C U69A A75U U80C | 0.11
60 | A3G A35G A75C | 1.11
61 | A3G C23A U25C U66C U74A | 0.17
62 | A3G A18U U26A U60A G70A | 0.08
63 | A3G A21G C32U | 0.14

Row | Variant | self-cleavage
64 | A3G A45U A47G U48C U67C | 0.28
65 | A3G A21G U49C U51C U54C A56U A64U | 0.61
66 | A3G A28G C29G A56U A65G | 0.12
67 | A3G A45G A64U | 0.27
68 | A3G A21G G30U U58C | 0.07
69 | A3G A28U U41A U43A C62U | 0.15
70 | A3G A35U C40U G46A | 0.04
71 | A3G A21G A57U U60A A64G A77U | 0.1
72 | A3G A15U A35U U41C U60A U72A | 0.23
73 | A3G A20G U31C A35G U67C | 0.77
74 | A3G C11U U26C C40G U43C A77G | 0.08
75 | A3G A15U G33A U41G A77U | 0.1
76 | A3G C11U U25A U51C A56G U60C U74C | 0.18
77 | A3G A15G G30A G46U A64C U66C | 0.08
78 | A3G A20G A21G U72C | 0.15
79 | A3G A15G U67C U74C U78C | 0.27
80 | A3G A28U U72C | 0.73
81 | A3G C17U U25G A47G | 0.38
82 | A3G A20G A28U | 0.54
83 | A3G A45G U67C | 0.3
